Results from a collection of fitness landscapes (doi:10.1016/j.celrep.2020.107928).
Over roughly 81,000 sequences, “one-hybrid fitness for binding NBS DNA” has its median near -0.1; the highest 2% begin near 0.36. This is one part of the list.

B1: Caulobacter ParB omega fusion; a variant is named by its letters at X, in order, B8GW30 (parent)
chain: MESVVVGEPGMSEGRRGLGRGLSALLGEVDAAPAQAPGEQLGGSREAPIEILQRNPDQPRRTFREEDLEDLSNSIREKGVLQPILVRPSPDTAGEYQIVAGERAWRAAQRAGLKTVPIMVRELDDLAVLEIGIIENVQRADLNVLEEALSYKVLMEKFERTQENIAQTIGKSXSHVANXMRLLXLPDEVQSYLVSGELTAXHARAIAAAADPVALAKQIIEGGLSVRETEALARKAPNLSAGKSKGGRPPRVKDTDTQALESDLSSVLGLDVSIDHRGSTGTLTITYATLEQLDDLCNRLTRGI

Variants of: B1
Assay: one-hybrid fitness for binding NBS DNA (the Noc-binding site; scaled: cognate 1, non-cognate 0); higher = stronger binding
Settings: with NBS DNA site
Summary of the method: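 Caulobacter ParB libraries with four specificity codons randomised were screened by bacterial one-hybrid selection in the E. coli USO strain, using a HIS3 reporter whose site lies 19 bp from the promoter. Selection ran for 48 hours at 37°C on M9 lacking histidine, with 0.1 mM IPTG and 5 mM 3-AT. Plasmids were Illumina-sequenced before and after selection, three replicate libraries were pooled, and variants with under 10 reads were dropped. Fitness is the log change in each variant's read ratio to wild type, rescaled against the cognate and non-cognate sites.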

one-hybrid fitness for binding NBS DNA, 0.232:
WYKR

one-hybrid fitness for binding NBS DNA, 0.516:
QQST

one-hybrid fitness for binding NBS DNA, 0.75:
QMKT

one-hybrid fitness for binding NBS DNA, 0.214:
QRWQ

one-hybrid fitness for binding NBS DNA, 0.452:
RYSR

one-hybrid fitness for binding NBS DNA, 0.487:
QCGS

one-hybrid fitness for binding NBS DNA, 0.271:
QQVA

one-hybrid fitness for binding NBS DNA, 0.461:
RTLR

one-hybrid fitness for binding NBS DNA, 0.275:
RTNY

one-hybrid fitness for binding NBS DNA, 0.224:
FRRR

one-hybrid fitness for binding NBS DNA, ≤ 0.2:
AGTI
CKDG
VLVE
QPFI
PGPP
HAIN
VIAS
WPKT
DTEF
SQDM
PRDR
RNHF
TCSE
LKVA
KWSR
AFMD
CQSG
RPNT
RWQF
PPDW
EALD
DYNG
YELA
TSWF
ACPP
SLTY
TLPV
GWDS
GYAA
MCQV
RNAG
GRDI
PACT
WTHV
TFWR
WDDF
FNRG
IFYG
PLHR
RPGK
RIYI
DYAK
ETPI
FYHR
HVIR
YYLV
PFAW
SPKY
MFID
WVNN
NWMR
FLGS
WSCM
VVIT
NSDE
RWTF
WLPA
PSLI
TPVE
YVLR
EPML
QGLG
YSVC
IKDF
LDKL
LIVY
DMPL
THKE
PHPK
GCIG
RDGR
SYAW
AYYG
QKPC
AQDI
RFHQ
AKTN
KHFS
RMFN
VMFG
KFKG
YSMM
GKHC
QDSE
QGDY
RHDW
GDTC
QCHF
SLPY
YHPR
EAAE
ITFA
NQDR
HHEY
PNDC
ERRT
VCLS
MPQQ
NRSQ
GAEC
HVPS
HCQT
INRR
RETE
QVKP
KMDE
CTYY
NNIT
HQRI
AQAF
MIHR
DCIS
LARQ
PAGP
WDSR
TCVA
VYPL
PQIA
DSLE
PSTW
DYLC
MAQC
NELC
YFMG
SAMR
VFTW
AFHA
IFSR
CDWV
AGPM
DRAC
QQLL
FQHS
ARNT
YGQR
LHPL
LSQS
WPSP
KKTE
TYRC
PHID
TPLD
RQTQ
DHLM
RLQW
MCLG
SPDG
THDG
QKQD
PECR
IAII
HTIE
KNNR
KCKS
WIRE
CLMY
PQKV
VYPH
SSLN
CRHH
MSGC
LPWT
SPKN
DGKW
FQTL
SYDG
VVYG
YAYA
GFKC
HLTY
TKLA
FSYA
DISC
YLLS
TWAK
KVFS
FKHS
LSAF
FNRY
PVQI
HFMR
PSEH
SAQE
TIRR
HQMM
CSMT
IKER
RHGH
TDAV
PSHR
HPQT
TNDT
EEVG
ETLK
NELS
KVQA
GRFC
FSKF
SFRL
TGGC
LPPV
TYST
RGIG
VQRH
AALY
LMVA
NLIG
LQRH
YDNH
PRDN
NSAR
KLRL
TLES
CMVG
CGTY
VFSV
STRF
GKPG
IRNM
FPEG
MPGG
NNPE
SIIT
KFST
TWFV
NDHT
LSEI
CMKG
NRYF
HRYV
VSHE
YSML
NRFQ
LVEA
PVCC
TDAG
FVNC
EAVT
QYWC
SSEQ
HSPS
TIQS
KCNC
KVRS
CTLQ
TYCG
MRVI
EPSL
IASD
PSMH
RDSM
EMTC
PLLG
INLI
GGSG
REWC
YKQA
VVTR
RCMV
MCAL
TSYA
YTAG
TNIG
RYDP
NLPT
GANT
NQPG
IMCR
CAVG
NPTA
TCNL
VPNV
RKAV
DRTD
HSWT
DRER
QDCM
GAIR
HMKS
PEYE
NVKM
QDPL
GEHR
SLCP
HITS
PMNH
HDAA
HRRL
SVSR
CWTL

one-hybrid fitness for binding NBS DNA, 0.649:
RKGT

one-hybrid fitness for binding NBS DNA, 0.541:
KTRR

one-hybrid fitness for binding NBS DNA, 0.279:
QHCS

one-hybrid fitness for binding NBS DNA, 0.768:
QTAR

one-hybrid fitness for binding NBS DNA, 0.664:
RRAA

one-hybrid fitness for binding NBS DNA, 1.1:
QRRR
